{"source": "the supplement of paper PMC10126150", "note": "Sequences with one replicate were seen in a single cluster, so their values are uncertain.", "data": [{"test_system": "ATP", "assay": "switch fluorescence ratio, 500 uM ATP over buffer (Cy3 cluster intensity, sum of 5 cycles each) (fold (ratio)); higher = stronger signal-on switching upon ATP binding; sequences stand for … in TCGTCGGCAGCGTCAGATGTGTATAAGAGACAGTTTTTTTTTTTTTTTTTTTTTTTTT…TC", "details": "aptamer strand: ATP DNA aptamer (quencher-CACCTGGGGGAGTATTGCGGAGGAAGG + anchor), 100 nM annealed; ATP concentration: 500 uM; one replicate", "outline": "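Exposure to 500 uM ATP lasted 15 min at 22 °C before imaging, and a selection-buffer image was taken beforehand, for Cy3-labelled switching-strand clusters on a modified Illumina MiSeq flow-cell annealed to 100 nM quencher-labelled ATP aptamer. Five buffer/ATP cycles were run with NaOH stripping and re-annealing between them. The fluorescence ratio per cluster is summed target-cycle over summed buffer-cycle Cy3 intensity, averaged per switch-domain sequence. Clusters outside 100-1000 RFU were excluded.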", "values": [{"sequence": "TAGGCTGCTA", "switch fluorescence ratio": 1.08}, {"sequence": "TAGGGAACAG", "switch fluorescence ratio": 0.999}, {"sequence": "TAGGGAAGGA", "switch fluorescence ratio": 0.954}, {"sequence": "TAGGGCAAAG", "switch fluorescence ratio": 1.02}, {"sequence": "TAGGGCAGTT", "switch fluorescence ratio": 0.981}, {"sequence": "TAGGGCGTGG", "switch fluorescence ratio": 0.992}, {"sequence": "TAGGGCTTTT", "switch fluorescence ratio": 0.993}, {"sequence": "TAGGGTACAG", "switch fluorescence ratio": 1.02}, {"sequence": "TAGGGTCGAA", "switch fluorescence ratio": 0.989}, {"sequence": "TAGGGTCGAG", "switch fluorescence ratio": 0.968}, {"sequence": "TAGGTACGTG", "switch fluorescence ratio": 1.05}, {"sequence": "TAGGTCAACA", "switch fluorescence ratio": 0.97}, {"sequence": "TAGGTCACGA", "switch fluorescence ratio": 1.02}, {"sequence": "TAGGTCGGAG", "switch fluorescence ratio": 0.971}, {"sequence": "TAGGTGCCGG", "switch fluorescence ratio": 0.988}, {"sequence": "TAGGTTATGT", "switch fluorescence ratio": 0.993}, {"sequence": "TAGGTTGTTT", "switch fluorescence ratio": 1}, {"sequence": "TAGTAAAGGC", "switch fluorescence ratio": 1.05}, {"sequence": "TAGTAAATCT", "switch fluorescence ratio": 1.04}, {"sequence": "TAGTAACTTT", "switch fluorescence ratio": 1.03}, {"sequence": "TAGTAAGATG", "switch fluorescence ratio": 0.991}, {"sequence": "TAGTAATCTA", "switch fluorescence ratio": 1.79}, {"sequence": "TAGTAATGCG", "switch fluorescence ratio": 1.01}, {"sequence": "TAGTACATGA", "switch fluorescence ratio": 1.05}, {"sequence": "TAGTACGTGG", "switch fluorescence ratio": 0.987}, {"sequence": "TAGTAGAGTA", "switch fluorescence ratio": 1.02}, {"sequence": "TAGTAGTAC", "switch fluorescence ratio": 1.19}, {"sequence": "TAGTATACGG", "switch fluorescence ratio": 0.967}, {"sequence": "TAGTATATAT", "switch fluorescence ratio": 0.948}, {"sequence": "TAGTATATT", "switch fluorescence ratio": 1.03}, {"sequence": "TAGTATGGTT", "switch fluorescence ratio": 0.996}, {"sequence": "TAGTATTATA", "switch fluorescence ratio": 1.03}, {"sequence": "TAGTATTGCT", "switch fluorescence ratio": 1.04}, {"sequence": "TAGTCACTTT", "switch fluorescence ratio": 1.02}, {"sequence": "TAGTCAGCCC", "switch fluorescence ratio": 0.99}, {"sequence": "TAGTCATAAT", "switch fluorescence ratio": 1}, {"sequence": "TAGTCGCGCG", "switch fluorescence ratio": 0.986}, {"sequence": "TAGTCGCGTG", "switch fluorescence ratio": 0.995}, {"sequence": "TAGTCTCAGG", "switch fluorescence ratio": 1.02}, {"sequence": "TAGTGATGAT", "switch fluorescence ratio": 1}, {"sequence": "TAGTGCGGGG", "switch fluorescence ratio": 0.974}, {"sequence": "TAGTGCTGCG", "switch fluorescence ratio": 0.978}, {"sequence": "TAGTGGCCGC", "switch fluorescence ratio": 1.04}, {"sequence": "TAGTGGCTTT", "switch fluorescence ratio": 0.99}, {"sequence": "TAGTGGGTCG", "switch fluorescence ratio": 0.971}, {"sequence": "TAGTGTAAAC", "switch fluorescence ratio": 0.993}, {"sequence": "TAGTGTTCT", "switch fluorescence ratio": 0.958}, {"sequence": "TAGTTAAGCG", "switch fluorescence ratio": 0.965}, {"sequence": "TAGTTATAAC", "switch fluorescence ratio": 1.01}, {"sequence": "TAGTTATACT", "switch fluorescence ratio": 1.05}, {"sequence": "TAGTTCAGAC", "switch fluorescence ratio": 0.988}, {"sequence": "TAGTTCCTGC", "switch fluorescence ratio": 1.05}, {"sequence": "TAGTTGCCCA", "switch fluorescence ratio": 1.02}, {"sequence": "TAGTTGGAG", "switch fluorescence ratio": 0.998}, {"sequence": "TAGTTGGCT", "switch fluorescence ratio": 0.982}, {"sequence": "TAGTTGGTAA", "switch fluorescence ratio": 1.01}, {"sequence": "TAGTTGGTGC", "switch fluorescence ratio": 1.08}, {"sequence": "TAGTTGTT", "switch fluorescence ratio": 0.984}, {"sequence": "TAGTTGTTAC", "switch fluorescence ratio": 0.995}, {"sequence": "TAGTTTACAT", "switch fluorescence ratio": 1}, {"sequence": "TAGTTTACGG", "switch fluorescence ratio": 1.01}, {"sequence": "TAGTTTAGGG", "switch fluorescence ratio": 0.982}, {"sequence": "TAGTTTATTG", "switch fluorescence ratio": 1.01}, {"sequence": "TAGTTTCAAG", "switch fluorescence ratio": 1}, {"sequence": "TAGTTTCGCA", "switch fluorescence ratio": 1.04}, {"sequence": "TAGTTTGCAG", "switch fluorescence ratio": 1.03}, {"sequence": "TAGTTTTG", "switch fluorescence ratio": 0.988}, {"sequence": "TAGTTTTGT", "switch fluorescence ratio": 1.03}, {"sequence": "TATAAAATAT", "switch fluorescence ratio": 0.981}, {"sequence": "TATAAACTAA", "switch fluorescence ratio": 1.03}, {"sequence": "TATAAAGGCG", "switch fluorescence ratio": 1.53}, {"sequence": "TATAAATAAT", "switch fluorescence ratio": 0.993}, {"sequence": "TATAAATGCT", "switch fluorescence ratio": 0.982}, {"sequence": "TATAACAT", "switch fluorescence ratio": 1.06}, {"sequence": "TATAACGTG", "switch fluorescence ratio": 0.993}, {"sequence": "TATAATATCT", "switch fluorescence ratio": 0.992}, {"sequence": "TATAATTACG", "switch fluorescence ratio": 1.01}, {"sequence": "TATAATTTTA", "switch fluorescence ratio": 0.988}, {"sequence": "TATACAGCCG", "switch fluorescence ratio": 0.991}, {"sequence": "TATACCGGGT", "switch fluorescence ratio": 0.997}, {"sequence": "TATACGGAAA", "switch fluorescence ratio": 1.07}, {"sequence": "TATACTCCGC", "switch fluorescence ratio": 2.77}, {"sequence": "TATACTTGGA", "switch fluorescence ratio": 1.01}, {"sequence": "TATAGCCGTG", "switch fluorescence ratio": 1.17}, {"sequence": "TATAGCGGGT", "switch fluorescence ratio": 1.05}, {"sequence": "TATAGGTTAA", "switch fluorescence ratio": 0.977}, {"sequence": "TATAGTAAGT", "switch fluorescence ratio": 1.01}, {"sequence": "TATAGTAGCA", "switch fluorescence ratio": 1}, {"sequence": "TATAGTGATC", "switch fluorescence ratio": 1.09}, {"sequence": "TATAGTGTGG", "switch fluorescence ratio": 0.972}, {"sequence": "TATATAGAAC", "switch fluorescence ratio": 1.01}, {"sequence": "TATATATGCG", "switch fluorescence ratio": 0.975}, {"sequence": "TATATCATGA", "switch fluorescence ratio": 1.02}, {"sequence": "TATATCGAGA", "switch fluorescence ratio": 1}, {"sequence": "TATATCGGGA", "switch fluorescence ratio": 1.01}, {"sequence": "TATATCTTAT", "switch fluorescence ratio": 1.01}, {"sequence": "TATATGTAGT", "switch fluorescence ratio": 0.986}, {"sequence": "TATATGTATT", "switch fluorescence ratio": 1}, {"sequence": "TATATGTTCT", "switch fluorescence ratio": 0.961}, {"sequence": "TATATGTTTA", "switch fluorescence ratio": 1.04}, {"sequence": "TATATTTAGG", "switch fluorescence ratio": 1.02}, {"sequence": "TATCACCACT", "switch fluorescence ratio": 1.03}, {"sequence": "TATCAGCTTC", "switch fluorescence ratio": 1.03}, {"sequence": "TATCAGGAGG", "switch fluorescence ratio": 1.04}, {"sequence": "TATCAGTGTG", "switch fluorescence ratio": 1.03}, {"sequence": "TATCCATTTT", "switch fluorescence ratio": 1}, {"sequence": "TATCCCGGGC", "switch fluorescence ratio": 1}, {"sequence": "TATCCGTTGA", "switch fluorescence ratio": 1.06}, {"sequence": "TATCCTCGTT", "switch fluorescence ratio": 1.02}, {"sequence": "TATCCTTTGC", "switch fluorescence ratio": 1.08}, {"sequence": "TATCGAGGA", "switch fluorescence ratio": 0.983}, {"sequence": "TATCGATAGA", "switch fluorescence ratio": 1.01}, {"sequence": "TATCGCTTAT", "switch fluorescence ratio": 1.01}, {"sequence": "TATCGGAGG", "switch fluorescence ratio": 1.03}, {"sequence": "TATCGGATAG", "switch fluorescence ratio": 1.02}, {"sequence": "TATCGGGGG", "switch fluorescence ratio": 1}, {"sequence": "TATCGTCA", "switch fluorescence ratio": 1}, {"sequence": "TATCGTGCTC", "switch fluorescence ratio": 0.98}, {"sequence": "TATCGTGGT", "switch fluorescence ratio": 0.972}, {"sequence": "TATCGTGTG", "switch fluorescence ratio": 0.961}, {"sequence": "TATCGTGTTC", "switch fluorescence ratio": 0.977}, {"sequence": "TATCTCGAGC", "switch fluorescence ratio": 1.03}, {"sequence": "TATCTCGAGG", "switch fluorescence ratio": 1.01}, {"sequence": "TATCTGGAGT", "switch fluorescence ratio": 1.14}, {"sequence": "TATCTGGATT", "switch fluorescence ratio": 0.99}, {"sequence": "TATCTGGGAC", "switch fluorescence ratio": 1}, {"sequence": "TATCTTAGGT", "switch fluorescence ratio": 0.996}, {"sequence": "TATGACTGCA", "switch fluorescence ratio": 1.03}, {"sequence": "TATGACTTAG", "switch fluorescence ratio": 1.07}, {"sequence": "TATGAGCCGA", "switch fluorescence ratio": 1.02}, {"sequence": "TATGATGCTG", "switch fluorescence ratio": 0.993}, {"sequence": "TATGATTGAC", "switch fluorescence ratio": 1.06}, {"sequence": "TATGATTGT", "switch fluorescence ratio": 1.01}, {"sequence": "TATGCAAATT", "switch fluorescence ratio": 1.02}, {"sequence": "TATGCAGATC", "switch fluorescence ratio": 1.02}, {"sequence": "TATGCATACG", "switch fluorescence ratio": 1.04}, {"sequence": "TATGCCTAAG", "switch fluorescence ratio": 0.984}, {"sequence": "TATGCGCCAG", "switch fluorescence ratio": 0.969}, {"sequence": "TATGCGGCGA", "switch fluorescence ratio": 1.02}, {"sequence": "TATGCTCTAC", "switch fluorescence ratio": 1.15}, {"sequence": "TATGCTTCGG", "switch fluorescence ratio": 0.967}, {"sequence": "TATGGCCCTT", "switch fluorescence ratio": 1.04}, {"sequence": "TATGGCGCT", "switch fluorescence ratio": 1.04}, {"sequence": "TATGGCTATA", "switch fluorescence ratio": 0.992}, {"sequence": "TATGGGACG", "switch fluorescence ratio": 0.998}, {"sequence": "TATGGGGTCT", "switch fluorescence ratio": 1.1}, {"sequence": "TATGGGTATC", "switch fluorescence ratio": 0.951}, {"sequence": "TATGGTGCTG", "switch fluorescence ratio": 1.01}, {"sequence": "TATGGTTATT", "switch fluorescence ratio": 0.996}, {"sequence": "TATGGTTGGC", "switch fluorescence ratio": 1}, {"sequence": "TATGTAGATC", "switch fluorescence ratio": 1.01}, {"sequence": "TATGTCCGGG", "switch fluorescence ratio": 1.04}, {"sequence": "TATGTCTAAC", "switch fluorescence ratio": 1.05}, {"sequence": "TATGTGCACG", "switch fluorescence ratio": 1.05}]}]}
